In publication PMC10726135:
The other results are listed elsewhere or left out. At the low end of the ranking the order means little. Measured with an extract: partners may take part in the binding.

Each sequence was assayed against T1, HNF4alpha8 (COS-7 nuclear extract) (UniProt P41235-5) (assay: protein-binding microarray). Conditions: COS-7 nuclear extract on double-stranded Agilent 4x180k PBM; binding buffer, salt, pH and temperature not given; high values mean tight binding; double strand, one strand shown; sequences stand for … in …GCCTAGGGAGATTAGAGTATCGGTCGA.
T1 sequence: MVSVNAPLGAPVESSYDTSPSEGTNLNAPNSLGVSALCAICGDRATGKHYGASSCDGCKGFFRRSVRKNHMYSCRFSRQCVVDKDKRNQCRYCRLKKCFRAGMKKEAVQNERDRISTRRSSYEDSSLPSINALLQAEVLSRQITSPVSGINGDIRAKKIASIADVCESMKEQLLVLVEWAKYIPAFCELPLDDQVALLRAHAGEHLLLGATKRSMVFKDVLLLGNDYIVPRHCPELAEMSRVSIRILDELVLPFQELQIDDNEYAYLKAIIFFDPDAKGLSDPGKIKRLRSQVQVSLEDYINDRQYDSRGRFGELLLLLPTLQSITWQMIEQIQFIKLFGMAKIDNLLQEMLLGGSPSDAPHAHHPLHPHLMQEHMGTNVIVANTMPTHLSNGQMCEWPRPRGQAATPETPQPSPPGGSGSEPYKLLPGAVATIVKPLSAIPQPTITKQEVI

Row | Sequence | binding signal (log2 normalized intensity)
1 | TCCATCATTTTTCTCTCTTGGACTCTTGGA | 4.92
2 | TCAGAGGCTGATTTCTCAGGAAGTGCTTGT | -0.831
3 | CATTTTTCTCTCTTGGACTCTTGGACTCCC | 7.67
4 | CAGGTCTCTTTTATGTACCACCGTATTCCT | 1.21
5 | ATGGTTAAGGTGAAAGTCCGACTTTTAAGA | 4.06
6 | TGGACTTTGAGTCATAAGAAACATTTTACA | 3.81
7 | CTCCCACGTCGCTGCCGCAGATCCCCGCTC | -1.26
8 | ACATTTCAAAAGCTGTGTGCTCCTGTAGAA | -0.839
9 | ACATGGTTCACTGATTACTGGATGTATAAT | 1.09
10 | GGGTCTTTTTGACCTGTATCTTGTGGTGAC | 2.81
11 | ATGGTCAGTGTTGATAAGAAAGCTGCAGTC | -0.903
12 | GGGCCGCCTTGGAAAACCCGGCGCGGACAT | -1.35
13 | AGACGGGGCTCTCAGAATCTGCCGATCACT | -1.35
14 | TTCTTAAGATAAGGACTGTTGGACCTCGAA | 3.26
15 | GGACTTGATGATTGACACTATTATTACTGT | 0.729
16 | TTTGCTATGGCCTTTCTTCATTGTTCGCAT | 0.609
17 | TGCCTCCTTCAAGGATTAGCAGATAAATCT | -0.736
18 | TGAGGACTTTGGTCTTATTACTAAGTGAGA | 2.64
19 | GACCTGTTTGTCTTGCTGGGGAGATCAGAG | 1.23
20 | GCCTTTCAGGCAGGAGACGATGGTTTTCCA | -1.3
21 | CGCCTTGCACAAATTTCAGATATCTGAATG | 0.505
22 | GATGATTCCCTTATCTTCTCCCCTGCCAAA | 3.42
23 | TCTTTGTTCAGAGGGCATGTTGAGTGGAAT | 2.14
24 | CAGAAGGGACTAGCCTTATCTCAGATGAGA | -1.38
25 | AGGGAGATAGAGAAAGAAAAAGTACACACC | -1.34

Row | Sequence | binding signal (log2 normalized intensity)
26 | TCTAGTCTAGTCCAAACTGCAACCTGATAA | 0.16
27 | TGGGGTTCAGCCACACCAAGTCTGGACCTG | 2.58
28 | AGGCAAGATCCGAAGTCTAGGACGTTATCA | -1.1
29 | CCTCTTCTGGGAAGAGTAGATAAGCAGATC | -1.27
30 | TTGGGACAAAGTTTGCCTGGGCTCTAGACA | -1.35
31 | AGCAGAAACATAGAAAGGAGTACACACCAT | -1.35
32 | GTGTTTATGGCAAATTGATATCCTGTCTAT | 0.623
33 | CTTACATTTTGCTCTTTGTACCGTTTGAAC | 4.24
34 | GTTATCTCGGGGATGGCATGTCTCTGGTCG | 1.29
35 | ACTGTCCTAGGTGCTGAAGATGCAACAGTG | 0.987
36 | AAAGGAGGAATCTGTGAAGGTCAGGAGCCC | -0.114
37 | GACAGCAGGAGTGGGAGAAAGCTTTGGACT | 2.65
38 | AACAAGTAAGGAAGACAAGACAAGGAAGTT | -1.39
39 | CAAAACTGGCAAAACTGGTCAATATCCACA | -1.06
40 | ATCCACATGTGGGTCCAAAGAACATTGCAT | 3.03
41 | CCCTTGACCAAGCAGCTGTTTGACCAAAGC | -0.933
42 | TATGGCCCACAAAGCCTAAAATATTCACTA | -1.34
43 | AAAGAATTCGTCCAGGGCCGCCCAAGCGAA | -1.13
44 | TCCGCTTGATGCCTGTTGCTCAGAATTACT | -1.41
45 | AACAAACAAAAACCAAAAAAACTTAACAGA | -1.33
46 | GCAAAGTCCCTGGGGACAGGGATTAAGTAC | -0.21
47 | GTCAGGAGACTGCTCGGCATCCCTGCCGTG | -1.39
48 | GAAAAATGTACATGTGCAAAAGCACCCAAG | -1.27
49 | AACATTGCATTCCTTTGTTTATCTAACCCA | 1.59
50 | GACTGATATTCAAACAGGTCAAGCAATGCT | -1.4

Row | Sequence | binding signal (log2 normalized intensity)
51 | GCAGGTGTGGGGGCGGCAGGAGCCACAAGC | -1.22
52 | ATCAGCAAGGTAAACATGATGAAAGCAATG | -1.07
53 | AACCCCTCTCCAAGCCAGAAAGATGTTTGC | 2.79
54 | AGGAGTTCAGCAGCATCTAAACTCTACTCA | -1.25
55 | CTGAACAAACAGCTTCCAGAATAGCCTCTG | -1.41
56 | TTAAGTCCAGAAAAGACCAAAAAGGCTAAC | -1.13
57 | CATGCCACAGCGCCCTCAGTGTTTTCACTG | -0.56
58 | ATATATGTACAGCTGTGTATGTGGCAGGCA | 1.11
59 | TGGTACAGGGCCCAGAAAAGTAGATTGTTA | -1.21
60 | AGGCATGACAGAGTGTCCTGCCCCCTGGAG | 4.33
61 | CGCGCGTGTGTGTGTGTGTGTGGTGTGTGT | 3.23
62 | AGCGTCAATGCCCCAGAAAGCCAGCAGGGG | -1.43
63 | GCTTGGGCGACGGACGCGCCGCGCCGGGGA | -1.33
64 | TGACCTTTATCCAGTTCTGTGTACAAAGCC | 3.01
65 | GTGGTTTCTTCCACTGGAGTCTTGTTTGTC | 1.9
66 | GGCCTGGTGGCTCCCCCAGGCGACTGGGCC | 0.699
67 | GATTACGATCCTGCCCTTCTGACCTCCCAG | 4.54
68 | GAAATGTAACCTTTGGCCAATTGCATTTTT | 5.04
69 | CCAATATAGCAAAGAGAGTCAAAGTTCAGG | 3.27
70 | TTGCACCAGTTTCTCAACAGACCCCTGAAT | 2.81
71 | CAGTAAGAGGATTTCTTCGCCACTTTCATC | -1.26
72 | AACTTAGGCCCATATTCCTTAGATAAAAAG | -0.773
73 | TTCAATAATACAAGAGGCTTCTTATCAGCA | -1.3
74 | ATTTATCTTTCCAGATTGTTCTATTAACCT | 1.68
75 | CTGATTAGCCTTTCCAAAGGAGGCAATGAG | -1.33

Row | Sequence | binding signal (log2 normalized intensity)
76 | CGATTATCTACAGATCTGGAGCCAGCAAGG | -1.34
77 | TTAGTCCATGACGCAAGCGAGTAAGGCCCG | -1.22
78 | AATGGGTCCGAAGGTCAGCTGACCAACAGA | 4.98
79 | AGGCAATGTCACGTTTATTTCTAACAGCTG | -1.3
80 | CCTGGAGGGACTTTGTCCCACAGGAGAAGT | 4.07
81 | CCACGACAGAATTGACTCTTCGTTTTCTTT | 1.58
82 | ATTTGCAGCAAGGCCCAGGGCAAGGACTCT | -1.32
83 | TTTTGGGTAAAGTCCAGGCAGGACATCAAA | 2.27
84 | AGATGAGGAAATTGAGGCTTAGCAGCTTGA | -1.15
85 | TCCTCAAAGAGCAGATGTGTCTTTATAACA | 0.719
86 | TCCCCTGGGCCCACGGCTCTGCACAGCCTG | -1.06
87 | CAAGATTCTTGGAGGCTGCAGCGCCACATT | -1.34
88 | ATGCCAGGCAAGAGCTCAGAAGCCACCAGT | -1.3
89 | ACAGATTCAGAGTCACATTTTAAGAAACCT | -1.17
90 | CAGGGCAAGGACTCTAAAGGGAATAACCTT | 0.381
91 | GTCAAAGGTCAATGAAGCTCTTGCTGGTCA | 2.84
92 | GTTGCTGTGCTGCCCTCTTGTGGCCATTTG | 1.56
93 | CCTGCCCTTTGTCCCTCCTGCTAGTCACAT | 3
94 | GTGCTCCTCCCCATCTCAGCCTCTCAGGTC | 1.84
95 | AGGACCTTGGACTGAAGACTGGAACTGGGC | 1.67
96 | GTAAATGCTGGAGATGAGGCTCAGACCTGA | -1.25
97 | GCCCTGGAATGGGATCCAGGTGCAAAGTAC | 5.12
98 | GTAACCCCCCAGGAGCGAGTCAAGGGTCAA | 4.62
99 | TTCCTCCCTTGGAATGTGACCTTAGACCCC | 8.83
100 | CCAGAGTCTACAGGTCAGACCTGTTTCAAA | 0.867

Row | Sequence | binding signal (log2 normalized intensity)
101 | AACACGGACTTTGAAGCTCCAAGATAGGAA | 1.6
102 | ACCCAACCTGTTACAAAACAGGTTCTTCCA | 0.712
103 | GTGAACTTTGCCCTCTCTTTCTGGAACCTA | 5.67
104 | CTGCTGGGGGTAAAGTGGATTGCTGGCCTT | 1.09
105 | TGTTTAAATAGTGATAATGGATGGCAAATA | 0.175
106 | CTCATCCCAGGGATAATGATAAAGAGATTG | -1.25
107 | TATCAACCAATGTATTCATGAGCATGCTTC | 0.298
108 | TAGGATAAGGGTAGGGCCAATCTCTGGCAT | -1.23
109 | AGTACCAGGTCAAAAGTTCAAACTTTATTT | 3.8
110 | AGCTCCCATAGAGTCCACCACTGACCTTAG | 3.83
111 | AATGCCCAGGATTCCTTTTTCACTGCTCAC | -0.85
112 | ACGGGCTATTTGGACTAGGCAAAAGACAGT | -1.42
113 | TCCCTATTGTTATCCAGGCCACGCTGCTAA | -0.859
114 | AGAGGAGAAGCAAATGAAAAGAATATCTCA | -1.33
115 | CATTTTTCCCCTGACAAGTATCTCGGTCAA | 1.53
116 | ATCTTCAGTCTAGAATCTGCAGCCCCTTTT | 3.24
117 | CATATCACCTAGGTGGAATCTTATACACAC | 0.446
118 | ACTACCTCTTTAGGCTGGACTCTGACCCAT | 7.54
119 | TGGACTACTTCATGTCCTGTAATTGGGGGA | -1.2
120 | GTTCGAATCCCAGCGGTGCCTCAACCGAGC | -1.27
121 | CTTCCCCTCCTTAGGAAAGAGACATCTGGG | -0.714
122 | TTGGTGCCTGCAGAGCCTCCCCATTGTAGA | 2.06
123 | ACTATTTGGTGCACAAGAGGGCAGTATTTG | 1.23
124 | TGTCCGGACACCAACCTTTGATCATCCGCA | 4.74
125 | TTCCTGCTGACCCTCTCCCCACCATTAACC | 4.46

Row | Sequence | binding signal (log2 normalized intensity)
126 | CACATTTCTGAGCTGTGGAAACTCCACATG | -1.29
127 | TTCCCACCAAACCTGAAAAACCTCTCTCCA | -1.33
128 | GTGTTTTCCGGGGGCGGTTTTTCCATTGTA | 1.44
129 | AAAGGTCACCAGTGAGCCAAGGTACCCTGG | 1.29
130 | TTGAGCTGGATGACCTTTGTCCTGGCACAA | 8
131 | TTGACCCTTAGGATGTGGGGTATCAGGTGG | 3.04
132 | GGCTTAAGATAAGGGACATCAACAAAGAAG | -1.18
133 | AAGTTACCTACGGGTCAAGGGTTCAGGGCT | 2.77
134 | TGTAGCCAGATAAGAGCTATCAATGACCCA | 2.21
135 | AATGCTCTGGCCTTTTTTTTGTGTGTGTGT | 2.93
136 | AGCATGGCCCAGGGACTCAGGCACACAAAA | -1.37
137 | ACTTATTGTGTTATGTACTTAGTGTTTTAT | 2.19
138 | AAGCAAGGCTCTTAGCAGAAGCCCTCCTGG | -1.33
139 | ACAATTTACAGTGTTCAAAGGTAGCTTCCT | 2.23
140 | CTGACCCTCAGGTTGCCCTAGTGACTCTAG | 2.05
141 | CTCTCTCCAAGGCACAGAGAAGAATTTCGA | -1.45
142 | CCAGCTCTGTTGCTTATCTTCTCTTTTACT | 0.621
143 | CCTGGGGAGCGGCCTGCACCTGTTTCTGGA | -1.27
144 | CCTCGGCTCTGCGCAGGCGCAGTCCTCTCT | -1.29
145 | TCGCCCGAGCGCTGCTTCTCGTCCCCGCCC | 4.01
